Assay results taken from the supplement of paper PMC8728848.
Some of the results follow.

Assays:
Test in all cases: glycan array binding signal (z-score within array); higher = stronger binding
Conditions in all cases: glycan notation: IUPAC condensed, linker removed; mutation: R74S
Neu5Ac(a2-3)Gal = target: Neu5Ac(a2-3)Gal
Method in brief: (§1)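 The binding signal is a Z-score computed within each array. Data were drawn from 3228 arrays in the Consortium for Functional Glycomics database, restricted to those with a known protein sequence. Scores were averaged over arrays of the same protein sequence at different concentrations or buffers, and over linkers, and negative values can be taken as non-binding.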

[1] = target: Neu5Ac(a2-3)Gal(b1-3)GalNAc
Method in brief: as §1

[2] = target: Neu5Ac(a2-3)Gal(b1-3)GalNAc(b1-3)Gal(a1-4)Gal(b1-4)Glc
Method in brief: as §1

[3] = target: Neu5Ac(a2-3)Gal(b1-3)GalNAc(b1-4)Gal(b1-4)Glc
Method in brief: as §1

[4] = target: Neu5Ac(a2-3)Gal(b1-3)GalNAc(b1-4)[Neu5Ac(a2-3)]Gal(b1-4)Glc
Method in brief: as §1

[5] = target: Neu5Ac(a2-3)Gal(b1-3)GalNAc(b1-4)[Neu5Ac(a2-8)Neu5Ac(a2-3)]Gal(b1-4)Glc
Method in brief: as §1

[6] = target: Neu5Ac(a2-3)Gal(b1-3)GalNAc6S
Method in brief: as §1

[7] = target: Neu5Ac(a2-3)Gal(b1-3)GlcNAc
Method in brief: as §1

[8] = target: Neu5Ac(a2-3)Gal(b1-3)GlcNAc(b1-2)Man
Method in brief: as §1

[9] = target: Neu5Ac(a2-3)Gal(b1-3)GlcNAc(b1-2)Man(a1-3)[GlcNAc(b1-4)][Neu5Ac(a2-3)Gal(b1-3)GlcNAc(b1-2)Man(a1-6)]Man(b1-4)GlcNAc(b1-4)GlcNAc
Method in brief: as §1

[10] = target: Neu5Ac(a2-3)Gal(b1-3)GlcNAc(b1-2)Man(a1-3)[Neu5Ac(a2-3)Gal(b1-3)GlcNAc(b1-2)Man(a1-6)]Man(b1-4)GlcNAc(b1-4)GlcNAc
Method in brief: as §1

[11] = target: Neu5Ac(a2-3)Gal(b1-3)GlcNAc(b1-2)[Neu5Ac(a2-3)Gal(b1-3)GlcNAc(b1-4)]Man(a1-6)[Neu5Ac(a2-3)Gal(b1-3)GlcNAc(b1-2)Man(a1-3)]Man(b1-4)GlcNAc(b1-4)GlcNAc
Method in brief: as §1

[12] = target: Neu5Ac(a2-3)Gal(b1-3)GlcNAc(b1-3)Gal(b1-3)GlcNAc
Method in brief: as §1

[13] = target: Neu5Ac(a2-3)Gal(b1-3)GlcNAc(b1-3)Gal(b1-4)GlcNAc
Method in brief: as §1

[14] = target: Neu5Ac(a2-3)Gal(b1-3)GlcNAc(b1-3)GalNAc
Method in brief: as §1

[15] = target: Neu5Ac(a2-3)Gal(b1-3)GlcNAc(b1-6)GalNAc
Method in brief: as §1

[16] = target: Neu5Ac(a2-3)Gal(b1-3)GlcNAc6S
Method in brief: as §1

[17] = target: Neu5Ac(a2-3)Gal(b1-3)[Fuc(a1-4)]GlcNAc
Method in brief: as §1

[18] = target: Neu5Ac(a2-3)Gal(b1-3)[Fuc(a1-4)]GlcNAc(b1-3)Gal(b1-3)[Fuc(a1-4)]GlcNAc
Method in brief: as §1

[19] = target: Neu5Ac(a2-3)Gal(b1-3)[Fuc(a1-4)]GlcNAc(b1-3)Gal(b1-4)[Fuc(a1-3)]GlcNAc
Method in brief: as §1

[20] = target: Neu5Ac(a2-3)Gal(b1-3)[GlcNAc(b1-6)]GalNAc
Method in brief: as §1

[21] = target: Neu5Ac(a2-3)Gal(b1-3)[Neu5Ac(a2-6)]GalNAc
Method in brief: as §1

[22] = target: Neu5Ac(a2-3)Gal(b1-3)[Neu5Ac(a2-6)]GlcNAc(b1-3)[Fuc(a1-3)[Gal(b1-4)]GlcNAc(b1-6)]Gal(b1-4)Glc
Method in brief: as §1

[23] = target: Neu5Ac(a2-3)Gal(b1-3)]Neu5Ac(a2-3)Gal(b1-4)]GlcNAc
Method in brief: as §1

Neu5Ac(a2-3)Gal(b1-4)Glc = target: Neu5Ac(a2-3)Gal(b1-4)Glc
Method in brief: as §1

[24] = target: Neu5Ac(a2-3)Gal(b1-4)GlcNAc
Method in brief: as §1

[25] = target: Neu5Ac(a2-3)Gal(b1-4)GlcNAc(b1-2)Man
Method in brief: as §1

[26] = target: Neu5Ac(a2-3)Gal(b1-4)GlcNAc(b1-2)Man(a1-3)[GlcNAc(b1-4)][Neu5Ac(a2-3)Gal(b1-4)GlcNAc(b1-2)Man(a1-6)]Man(b1-4)GlcNAc(b1-4)GlcNAc
Method in brief: as §1

[27] = target: Neu5Ac(a2-3)Gal(b1-4)GlcNAc(b1-2)Man(a1-3)[Neu5Ac(a2-3)Gal(b1-4)GlcNAc(b1-2)Man(a1-6)]Man(b1-4)GlcNAc(b1-4)GlcNAc
Method in brief: as §1

[28] = target: Neu5Ac(a2-3)Gal(b1-4)GlcNAc(b1-2)Man(a1-3)[Neu5Ac(a2-3)Gal(b1-4)GlcNAc(b1-2)Man(a1-6)]Man(b1-4)GlcNAc(b1-4)[Fuc(a1-6)]GlcNAc
Method in brief: as §1

[29] = target: Neu5Ac(a2-3)Gal(b1-4)GlcNAc(b1-2)Man(a1-3)[Neu5Ac(a2-6)Gal(b1-4)GlcNAc(b1-2)Man(a1-6)]Man(b1-4)GlcNAc(b1-4)GlcNAc
Method in brief: as §1

[30] = target: Neu5Ac(a2-3)Gal(b1-4)GlcNAc(b1-2)[Neu5Ac(a2-3)Gal(b1-4)GlcNAc(b1-4)]Man(a1-3)[GlcNAc(b1-4)][Neu5Ac(a2-3)Gal(b1-4)GlcNAc(b1-2)[Neu5Ac(a2-3)Gal(b1-4)GlcNAc(b1-6)]Man(a1-6)]Man(b1-4)GlcNAc(b1-4)GlcNAc
Method in brief: as §1

[31] = target: Neu5Ac(a2-3)Gal(b1-4)GlcNAc(b1-2)[Neu5Ac(a2-3)Gal(b1-4)GlcNAc(b1-4)]Man(a1-3)[GlcNAc(b1-4)][Neu5Ac(a2-3)Gal(b1-4)GlcNAc(b1-4)Man(a1-6)]Man(b1-4)GlcNAc(b1-4)GlcNAc
Method in brief: as §1

[32] = target: Neu5Ac(a2-3)Gal(b1-4)GlcNAc(b1-2)[Neu5Ac(a2-3)Gal(b1-4)GlcNAc(b1-6)]Man(a1-6)[Neu5Ac(a2-3)Gal(b1-4)GlcNAc(b1-2)Man(a1-3)][GlcNAc(b1-4)]Man(b1-4)GlcNAc(b1-4)GlcNAc
Method in brief: as §1

[33] = target: Neu5Ac(a2-3)Gal(b1-4)GlcNAc(b1-3)Gal
Method in brief: as §1

[34] = target: Neu5Ac(a2-3)Gal(b1-4)GlcNAc(b1-3)Gal(b1-3)GlcNAc
Method in brief: as §1

[35] = target: Neu5Ac(a2-3)Gal(b1-4)GlcNAc(b1-3)Gal(b1-4)GlcNAc
Method in brief: as §1

[36] = target: Neu5Ac(a2-3)Gal(b1-4)GlcNAc(b1-3)Gal(b1-4)GlcNAc(b1-2)Man(a1-3)[Neu5Ac(a2-3)Gal(b1-4)GlcNAc(b1-3)Gal(b1-4)GlcNAc(b1-2)Man(a1-6)]Man(b1-4)GlcNAc(b1-4)GlcNAc
Method in brief: as §1

[37] = target: Neu5Ac(a2-3)Gal(b1-4)GlcNAc(b1-3)Gal(b1-4)GlcNAc(b1-3)Gal(b1-4)GlcNAc
Method in brief: as §1

[38] = target: Neu5Ac(a2-3)Gal(b1-4)GlcNAc(b1-3)Gal(b1-4)GlcNAc(b1-3)Gal(b1-4)GlcNAc(b1-2)Man(a1-3)[Neu5Ac(a2-3)Gal(b1-4)GlcNAc(b1-3)Gal(b1-4)GlcNAc(b1-3)Gal(b1-4)GlcNAc(b1-2)Man(a1-6)]GalNAc
Method in brief: as §1

[39] = target: Neu5Ac(a2-3)Gal(b1-4)GlcNAc(b1-3)Gal(b1-4)GlcNAc(b1-3)GalNAc
Method in brief: as §1

[40] = target: Neu5Ac(a2-3)Gal(b1-4)GlcNAc(b1-3)Gal(b1-4)GlcNAc(b1-3)[Neu5Ac(a2-3)Gal(b1-4)GlcNAc(b1-3)Gal(b1-4)GlcNAc(b1-6)]GalNAc
Method in brief: as §1

[41] = target: Neu5Ac(a2-3)Gal(b1-4)GlcNAc(b1-3)Gal(b1-4)GlcNAc(b1-6)[Gal(b1-3)]GalNAc
Method in brief: as §1

[42] = target: Neu5Ac(a2-3)Gal(b1-4)GlcNAc(b1-3)Gal(b1-4)[Fuc(a1-3)]GlcNAc
Method in brief: as §1

[43] = target: Neu5Ac(a2-3)Gal(b1-4)GlcNAc(b1-3)GalNAc
Method in brief: as §1

B1: Gal 7 (Homo sapiens) (protein)
chain: MSNVPHKSSLPEGIRPGTVLRIRGLVPPNASRFHVNLLCGEEGGSDAALHFNPRLDTSEVVFNSKEGGSWGREESGPGVPFGRGQPFEVLIIASDDGFKAVVGDAQYHHFRHRLPLARVRLVEVGGDVQLDSVRIF
With B1 the “glycan array binding signal (z-score)” value (Neu5Ac(a2-3)Gal) was -0.449, the “glycan array binding signal (z-score)” value [1] was -0.316 and the “glycan array binding signal (z-score)” value [2] was -0.238. The “glycan array binding signal (z-score)” value [3] was -0.29, the “glycan array binding signal (z-score)” value [4] was -0.265 and the “glycan array binding signal (z-score)” value [5] was -0.359. The “glycan array binding signal (z-score)” value [6] was -0.673, the “glycan array binding signal (z-score)” value [7] was -0.228 and the “glycan array binding signal (z-score)” value [8] was -0.105. For the same binder, the “glycan array binding signal (z-score)” value [9] was -0.228, the “glycan array binding signal (z-score)” value [10] was 0.398 and the “glycan array binding signal (z-score)” value [11] was 0.541. The “glycan array binding signal (z-score)” value [12] was -0.625, the “glycan array binding signal (z-score)” value [13] was -0.501 and the “glycan array binding signal (z-score)” value [14] was -0.585. The “glycan array binding signal (z-score)” value [15] was -0.428, the “glycan array binding signal (z-score)” value [16] was -0.219 and the “glycan array binding signal (z-score)” value [17] was -0.561. The “glycan array binding signal (z-score)” value [18] was 0.209, the “glycan array binding signal (z-score)” value [19] was 0.456 and the “glycan array binding signal (z-score)” value [20] was -0.436. The “glycan array binding signal (z-score)” value [21] was -0.412, the “glycan array binding signal (z-score)” value [22] was 0.154 and the “glycan array binding signal (z-score)” value [23] was -0.355. The “glycan array binding signal (z-score)” value (Neu5Ac(a2-3)Gal(b1-4)Glc) was -0.141, the “glycan array binding signal (z-score)” value [24] was -0.58 and the “glycan array binding signal (z-score)” value [25] was 0.603. The “glycan array binding signal (z-score)” value [26] was -0.325, the “glycan array binding signal (z-score)” value [27] was -0.442 and the “glycan array binding signal (z-score)” value [28] was 0.751. The “glycan array binding signal (z-score)” value [29] was -0.512, the “glycan array binding signal (z-score)” value [30] was -0.437 and the “glycan array binding signal (z-score)” value [31] was -0.179. The “glycan array binding signal (z-score)” value [32] was -0.024, the “glycan array binding signal (z-score)” value [33] was -0.541 and the “glycan array binding signal (z-score)” value [34] was -0.714. The “glycan array binding signal (z-score)” value [35] was -0.509, the “glycan array binding signal (z-score)” value [36] was 0.032 and the “glycan array binding signal (z-score)” value [37] was -0.093. The “glycan array binding signal (z-score)” value [38] was 1.21, the “glycan array binding signal (z-score)” value [39] was -0.558 and the “glycan array binding signal (z-score)” value [40] was -0.32. For the same binder, the “glycan array binding signal (z-score)” value [41] was -0.149, the “glycan array binding signal (z-score)” value [42] was -0.278 and the “glycan array binding signal (z-score)” value [43] was -0.311.
